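GI50 = concentration required for 50% inhibition of growth.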 Certain results were filed several times, with different values. They are shown here; other results are not. The source may hold further records. Results that share an entry are repeated measurements (runs, samples, wells, individuals or studies). What stands in brackets tells the records apart. The letters are not those of the source and start again with each entry.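 TGI: total growth inhibition.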
Tests used:
Experiment in all cases: growth of human tumour cells (NCI), 384-well format
UACC-62 melanoma = tested on: UACC-62 melanoma
HT29 colon = tested on: HT29 colon
OVCAR-5 ovarian = tested on: OVCAR-5 ovarian
CCRF-CEM leukemia = tested on: CCRF-CEM leukemia
HS 578T breast = tested on: HS 578T breast
MCF7 breast = tested on: MCF7 breast
HOP-62 NSCLC = tested on: HOP-62 NSCLC
OVCAR-3 ovarian = tested on: OVCAR-3 ovarian
SNB-75 CNS = tested on: SNB-75 CNS
U251 glioblastoma = tested on: U251 glioblastoma
SK-OV-3 ovarian = tested on: SK-OV-3 ovarian
786-0 renal = tested on: 786-0 renal
UO-31 renal = tested on: UO-31 renal
T-47D breast = tested on: T-47D breast
MDA-MB-435 melanoma = tested on: MDA-MB-435 melanoma
SF-268 CNS = tested on: SF-268 CNS
A498 renal = tested on: A498 renal
KM12 colon = tested on: KM12 colon
SN12C renal = tested on: SN12C renal
PC-3 prostate = tested on: PC-3 prostate
SW-620 colon = tested on: SW-620 colon
A549 NSCLC = tested on: A549 NSCLC
UACC-257 melanoma = tested on: UACC-257 melanoma
NCI-H460 NSCLC = tested on: NCI-H460 NSCLC
SK-MEL-5 melanoma = tested on: SK-MEL-5 melanoma
IGROV1 ovarian = tested on: IGROV1 ovarian
COLO 205 colon = tested on: COLO 205 colon
SF-539 CNS = tested on: SF-539 CNS
HCT-15 colon = tested on: HCT-15 colon
SNB-19 CNS = tested on: SNB-19 CNS
HCC-2998 colon = tested on: HCC-2998 colon

`CCc1cc2c(cc1N1CCC(N3CCOCC3)CC1)C(C)(C)c1[nH]c3cc(C#N)ccc3c1C2=O` was tested, and the TGI (UACC-62 melanoma) was 30.9 µM [sample A, 1 test] and 2.04 µM [sample B, 1 test], the TGI (HT29 colon) was 31.3 µM [sample A, 1 test] and 2.81 µM [sample B, 1 test] and the TGI (OVCAR-5 ovarian) was > 71 µM [sample A, mean of 2 tests] and 7.01 µM [sample B, 1 test]. The TGI (CCRF-CEM leukemia) was 33.6 µM [sample A, 1 test] and 2.57 µM [sample B, 1 test], the GI50 (HS 578T breast) was 4.38 µM [sample A, mean of 2 tests] and 359 nM [sample B, 1 test] and the GI50 (MCF7 breast) was 3.99 µM [sample A, mean of 2 tests] and 387 nM [sample B, 1 test]. For the same compound, the GI50 (HOP-62 NSCLC) was 4 µM [sample A, mean of 2 tests] and 285 nM [sample B, 1 test], the TGI (HOP-62 NSCLC) was 8.25 µM [sample A, mean of 2 tests] and 804 nM [sample B, 1 test] and the GI50 (OVCAR-3 ovarian) was 4.87 µM [sample A, mean of 2 tests] and 276 nM [sample B, 1 test]. The TGI (OVCAR-3 ovarian) was 9.92 µM [sample A, mean of 2 tests] and 599 nM [sample B, 1 test], the GI50 (SNB-75 CNS) was 5.45 µM [sample A, mean of 2 tests] and 341 nM [sample B, 1 test] and the TGI (U251 glioblastoma) was 32.5 µM [sample A, 1 test] and 2.33 µM [sample B, 1 test]. The TGI (SK-OV-3 ovarian) was 23.9 µM [sample A, 1 test] and 2.38 µM [sample B, 1 test], the GI50 (786-0 renal) was 3.94 µM [sample A, mean of 2 tests] and 278 nM [sample B, 1 test] and the TGI (786-0 renal) was 8.02 µM [sample A, mean of 2 tests] and 751 nM [sample B, 1 test]. The GI50 (UO-31 renal) was 11.5 µM [sample A, 1 test] and 376 nM [sample B, 1 test], the TGI (UO-31 renal) was 24.6 µM [sample A, 1 test] and 1.29 µM [sample B, 1 test] and the GI50 (T-47D breast) was 6.56 µM [sample A, 1 test] and 396 nM [sample B, 1 test]. The TGI (T-47D breast) was 19.7 µM [sample A, 1 test] and 1.66 µM [sample B, 1 test], the TGI (MDA-MB-435 melanoma) was 33.4 µM [sample A, 1 test] and 3.23 µM [sample B, 1 test] and the GI50 (SF-268 CNS) was 18.1 µM [sample A, 1 test] and 209 nM [sample B, 1 test]. For the same compound, the TGI (SF-268 CNS) was 34.4 µM [sample A, 1 test] and 557 nM [sample B, 1 test], the GI50 (A498 renal) was 5.41 µM [sample A, mean of 2 tests] and 293 nM [sample B, 1 test] and the TGI (A498 renal) was 10.6 µM [sample A, mean of 2 tests] and 805 nM [sample B, 1 test]. The GI50 (KM12 colon) was 1.99 µM [sample A, mean of 2 tests] and 136 nM [sample B, 1 test], the TGI (SN12C renal) was 34.3 µM [sample A, 1 test] and 2.81 µM [sample B, 1 test] and the TGI (PC-3 prostate) was 31 µM [sample A, 1 test] and 2.41 µM [sample B, 1 test]. For the same compound, the TGI (SW-620 colon) was > 60.1 µM [sample A, mean of 2 tests] and 3.13 µM [sample B, 1 test], the GI50 (A549 NSCLC) was 3.83 µM [sample A, mean of 2 tests] and 155 nM [sample B, 1 test] and the TGI (A549 NSCLC) was 8.3 µM [sample A, mean of 2 tests] and 468 nM [sample B, 1 test]. The TGI (UACC-257 melanoma) was 35.8 µM [sample A, 1 test] and 2.67 µM [sample B, 1 test], the GI50 (NCI-H460 NSCLC) was 4.25 µM [sample A, mean of 2 tests] and 165 nM [sample B, 1 test] and the TGI (NCI-H460 NSCLC) was 8.45 µM [sample A, mean of 2 tests] and 330 nM [sample B, 1 test]. For the same compound, the GI50 (SK-MEL-5 melanoma) was 3.93 µM [sample A, mean of 2 tests] and 330 nM [sample B, 1 test], the TGI (IGROV1 ovarian) was > 52.9 µM [sample A, mean of 2 tests] and 2.35 µM [sample B, 1 test] and the TGI (COLO 205 colon) was 56.4 µM [sample A, mean of 2 tests] and 2.51 µM [sample B, 1 test]. The GI50 (SF-539 CNS) was 5.2 µM [sample A, mean of 2 tests] and 188 nM [sample B, 1 test], the TGI (SF-539 CNS) was 9.82 µM [sample A, mean of 2 tests] and 402 nM [sample B, 1 test] and the GI50 (HCT-15 colon) was 4.02 µM [sample A, mean of 2 tests] and 396 nM [sample B, 1 test]. For the same compound, the TGI (SNB-19 CNS) was 39.1 µM [sample A, 1 test] and 2.38 µM [sample B, 1 test] and the TGI (HCC-2998 colon) was 37.8 µM [sample A, 1 test] and 2.1 µM [sample B, 1 test].

Reference: PubChem BioAssay (NCI)
